Test results reported in the supplement of paper PMC9446081.
The whole screen tested about 39,000 compounds, of which about 220 (0.56%) showed activity. This is one part of the list.

Tested on: Escherichia coli K-12 BW25113
Assay: relative growth (OD600 normalised to plate interquartile mean) (fraction); higher = less growth inhibition, active = 0.2 or less
Conditions: 50 µM; LB; incubation time: overnight (16-24 h)
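Further: static incubation at 37 °C against the wild-type strain, values averaged over two biological replicates.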

Question: How did the relative growth turn out when `C[C@H]1CN([C@@H](C)CO)C(=O)c2cccc(NC(=O)c3nc4ccccc4s3)c2O[C@@H]1CN(C)C(=O)Nc1ccc(F)cc1` was run?
Answer: inactive: 0.987

Question: For `Cc1ccc(S(=O)(=O)Nc2cccc3c2O[C@H](CN(C)S(=O)(=O)c2cn(C)cn2)[C@@H](C)CN([C@H](C)CO)C3=O)cc1`, which relative growth is on record?
Answer: inactive: 0.998

Question: Which relative growth does the source give for `COc1ccc(CN(C)C[C@H]2Oc3ccc(NS(=O)(=O)c4c(C)noc4C)cc3CC(=O)N([C@@H](C)CO)C[C@H]2C)cc1` here?
Answer: inactive: 0.993

Question: For `C[C@@H]1CN([C@@H](C)CO)C(=O)c2cc(NC(=O)CCC(F)(F)F)ccc2O[C@@H]1CN(C)Cc1ccc(-c2ccccc2)cc1`, which relative growth is on record?
Answer: inactive: 0.991

Question: `CCCN(C)C[C@H]1OCCCC[C@H](C)Oc2ccc(NC(=O)CCC(F)(F)F)cc2C(=O)N([C@@H](C)CO)C[C@H]1C` was tested. Which relative growth did it give?
Answer: inactive: 0.997

Question: With `C[C@@H]1CN([C@H](C)CO)C(=O)c2cc(NC(=O)Nc3ccccc3)ccc2O[C@H]1CN(C)CC1CCCCC1` as the molecule, how does the relative growth read?
Answer: inactive: 1

Question: `C[C@@H]1CN([C@H](C)CO)C(=O)c2cccc(NC(=O)Nc3ccc4c(c3)OCO4)c2O[C@@H]1CN(C)Cc1ccc(Cl)c(Cl)c1` was tested. Which relative growth did it give?
Answer: inactive: 0.985

Question: Which relative growth does the source give for `CCOC(=O)c1cn[nH]c1N` here?
Answer: inactive: 0.95

Question: Which relative growth does the source give for `C[C@H]1CN([C@@H](C)CO)C(=O)Cc2cc(NC(=O)NC3CCCCC3)ccc2O[C@@H]1CN(C)C(=O)Nc1ccc(C(F)(F)F)cc1` here?
Answer: inactive: 1.03

Question: With `C[C@H]1CN([C@@H](C)CO)C(=O)Cc2cc(NC(=O)Cn3cnnn3)ccc2O[C@@H]1CN(C)Cc1ccc(C(=O)O)cc1` as the molecule, how does the relative growth read?
Answer: inactive: 0.99

Question: For `CN(C)CCCNC(=O)C[C@@H]1CC[C@H]2[C@H](COc3ccc(NS(C)(=O)=O)cc3C(=O)N2C)O1`, which relative growth is on record?
Answer: inactive: 1.03

Question: With `O=c1c(O)c(-c2ccccc2)oc2cc(O)cc(O)c12` as the molecule, how does the relative growth read?
Answer: inactive: 0.996

Question: How did the relative growth turn out when `Cc1noc(C)c1NC(=O)N[C@H]1C=C[C@H](CC(=O)NCCCN(C)C)O[C@H]1CO` was run?
Answer: inactive: 0.981

Question: `COc1ccc(S(=O)(=O)N2C[C@@H](O)COC[C@@H]3O[C@@H](CC(=O)N[C@H]4CCN(Cc5ccccc5)C4)CC[C@H]32)cc1` was tested. Which relative growth did it give?
Answer: inactive: 0.854

Question: Which relative growth does the source give for `COc1ccc(S(=O)(=O)Nc2ccc3c(c2)C(=O)N([C@@H](C)CO)C[C@H](C)[C@H](CN(C)S(C)(=O)=O)OCCCC[C@@H](C)O3)cc1` here?
Answer: inactive: 0.983

Question: How did the relative growth turn out when `C[C@@H]1CN([C@H](C)CO)C(=O)c2cc(NS(C)(=O)=O)ccc2O[C@@H](C)CCCCO[C@@H]1CN(C)C(=O)CCCN(C)C` was run?
Answer: inactive: 1.01

Question: `COC(=O)N[C@H](C(=O)N1CC2(CC2)C[C@H]1c1nc(-c2ccc3c(c2)C(F)(F)c2cc(-c4ccc5nc([C@@H]6[C@H]7CC[C@H](C7)N6C(=O)[C@@H](NC(=O)OC)C(C)C)[nH]c5c4)ccc2-3)c[nH]1)C(C)C` was tested. Which relative growth did it give?
Answer: inactive: 1.02

Question: `C[C@H](CO)N1C[C@H](C)[C@@H](CN(C)C(=O)Nc2cccc(C(F)(F)F)c2)OCc2ccccc2-c2ccccc2C1=O` was tested. Which relative growth did it give?
Answer: inactive: 1.01

Question: Which relative growth does the source give for `COc1ccc(C=CC(=O)Nc2ccccc2C(=O)O)cc1OC` here?
Answer: inactive: 0.907

Question: `CN(C)C(=O)c1ccc(-c2cccc(-c3nc(C(=O)NC4CCCCC4)cc4c3[C@@H](CCO)N([S@](=O)C(C)(C)C)C4)c2)cc1` was tested. Which relative growth did it give?
Answer: inactive: 0.984

Question: How did the relative growth turn out when `COc1ccc(NC(=O)N(C)C[C@H]2Oc3c(NC(=O)C4CCOCC4)cccc3C(=O)N([C@H](C)CO)C[C@@H]2C)cc1` was run?
Answer: inactive: 1.04

Question: With `C[C@@H]1CCCCO[C@H](CN(C)C(=O)Nc2cccc3ccccc23)[C@@H](C)CN([C@H](C)CO)C(=O)c2cc(NC(=O)Nc3cccc4ccccc34)ccc2O1` as the molecule, how does the relative growth read?
Answer: inactive: 0.948

Question: How did the relative growth turn out when `CNC[C@@H]1OCCCC[C@@H](C)Oc2ccc(NC(=O)CCCN(C)C)cc2C(=O)N([C@H](C)CO)C[C@H]1C` was run?
Answer: inactive: 1

Question: For `CCC(=O)N1CCC(C(=O)O)CC1`, which relative growth is on record?
Answer: inactive: 1.02

Question: For `CC(C)NC(=O)N(C)C[C@@H]1Oc2ccc(NC(=O)NC3CCCCC3)cc2CC(=O)N([C@@H](C)CO)C[C@H]1C`, which relative growth is on record?
Answer: inactive: 0.978

Question: For `C[C@H]1CN([C@@H](C)CO)C(=O)Cc2cc(NC(=O)Cn3cnnn3)ccc2O[C@@H]1CN(C)Cc1ccc2c(c1)OCO2`, which relative growth is on record?
Answer: inactive: 1.01

Question: Which relative growth does the source give for `C[C@@H]1CN([C@@H](C)CO)C(=O)c2c(c3ccccc3n2C)-c2ccccc2CO[C@H]1CN(C)Cc1ccc2c(c1)OCO2` here?
Answer: inactive: 1.01

Question: `COc1ccc(NC(=O)N(C)C[C@H]2OCCCC[C@H](C)Oc3ccc(NC(=O)Cc4ccccc4)cc3C(=O)N([C@@H](C)CO)C[C@H]2C)cc1` was tested. Which relative growth did it give?
Answer: inactive: 0.997

Question: With `CCNc1nc(=O)cc(F)[nH]1` as the molecule, how does the relative growth read?
Answer: inactive: 0.996

Question: Which relative growth does the source give for `C[C@@H]1CN([C@H](C)CO)C(=O)c2cc(NC(=O)C3CCCCC3)ccc2O[C@@H](C)CCCCO[C@@H]1CN(C)C(=O)Nc1ccccc1` here?
Answer: inactive: 1.02

Question: `C[C@H]1CCCCO[C@H](CN(C)S(=O)(=O)c2ccc(F)cc2)[C@@H](C)CN([C@@H](C)CO)C(=O)c2cc(NC(=O)Nc3cccc4ccccc34)ccc2O1` was tested. Which relative growth did it give?
Answer: inactive: 1

Question: How did the relative growth turn out when `C/C=C/c1ccc2c(c1)O[C@@H](CN(C)S(=O)(=O)c1ccc(C)cc1)[C@@H](C)CN([C@@H](C)CO)S2(=O)=O` was run?
Answer: inactive: 1.03

Question: `CC(C)NC(=O)Nc1ccc2c(c1)C(=O)N([C@H](C)CO)C[C@H](C)[C@@H](CN(C)C(=O)NC1CCCCC1)O2` was tested. Which relative growth did it give?
Answer: inactive: 0.996

Question: Which relative growth does the source give for `Cc1noc(C)c1NC(=O)Nc1ccc2c(c1)C(=O)N([C@H](C)CO)C[C@@H](C)[C@H](CN(C)Cc1ccc(C(F)(F)F)cc1)O2` here?
Answer: inactive: 0.989

Question: With `C[C@@H]1CN([C@H](C)CO)C(=O)Cc2cc(NS(=O)(=O)c3ccccc3)ccc2O[C@@H]1CN(C)S(=O)(=O)c1ccccc1` as the molecule, how does the relative growth read?
Answer: inactive: 0.979

Question: `C[C@H]1CN([C@@H](C)CO)C(=O)CCCn2cc(nn2)CO[C@@H]1CN(C)Cc1cccc2c1OCCCO2` was tested. Which relative growth did it give?
Answer: inactive: 0.997

Question: For `C[C@H]1CCCCO[C@@H](CN(C)Cc2ccc3c(c2)OCO3)[C@@H](C)CN([C@@H](C)CO)C(=O)c2cc(NC(=O)Nc3ccccc3)ccc2O1`, which relative growth is on record?
Answer: inactive: 0.905

Question: With `C[C@H]1CN([C@@H](C)CO)C(=O)c2cc(NC(=O)C3CCCCC3)ccc2O[C@H]1CN(C)Cc1ccc(Oc2ccccc2)cc1` as the molecule, how does the relative growth read?
Answer: inactive: 1

Question: With `C[C@@H]1CN([C@H](C)CO)C(=O)c2cccc(NC(=O)c3ccc(-c4nccs4)cc3)c2O[C@@H]1CN(C)Cc1ccc(-c2ccccc2)cc1` as the molecule, how does the relative growth read?
Answer: inactive: 1

Question: For `CCS(=O)(=O)N1CCn2cc(Cn3cncn3)nc2C1`, which relative growth is on record?
Answer: inactive: 1

Question: With `COc1ccc(NC(=O)Nc2ccc3c(c2)C(=O)N([C@H](C)CO)C[C@H](C)[C@H](CN(C)C(=O)Nc2ccc(C(F)(F)F)cc2)OCCCC[C@@H](C)O3)cc1` as the molecule, how does the relative growth read?
Answer: inactive: 1.01

Question: With `COc1ccc(NC(=O)N(C)C[C@@H]2OCCCC[C@@H](C)Oc3ccc(NC(=O)Cc4ccccc4)cc3C(=O)N([C@@H](C)CO)C[C@@H]2C)cc1` as the molecule, how does the relative growth read?
Answer: inactive: 0.994

Question: With `CCCC(=O)Nc1ccc2c(c1)OC[C@H](C)N(Cc1ccc(-c3ccccn3)cc1)C[C@@H](C)[C@@H](OC)CN(C)C2=O` as the molecule, how does the relative growth read?
Answer: inactive: 1

Question: With `Cc1noc(C)c1NC(=O)Nc1ccc2c(c1)C(=O)N([C@H](C)CO)C[C@H](C)[C@@H](CN(C)C(=O)Nc1ccc(C(F)(F)F)cc1)OCCCC[C@@H](C)O2` as the molecule, how does the relative growth read?
Answer: inactive: 0.965

Question: `COc1ccc(S(=O)(=O)Nc2ccc3c(c2)C(=O)N(C)C[C@@H](OC)[C@H](C)CN(C)[C@H](C)CO3)cc1` was tested. Which relative growth did it give?
Answer: inactive: 0.994

Question: With `C[C@@H]1CN([C@H](C)CO)C(=O)c2cccc(NS(=O)(=O)c3cccs3)c2O[C@H]1CN(C)S(=O)(=O)c1ccccc1` as the molecule, how does the relative growth read?
Answer: inactive: 1.02

Question: How did the relative growth turn out when `COc1ccc(CNC(=O)C[C@@H]2CC[C@@H]3[C@H](COc4ccc(NC(=O)C(C)C)cc4C(=O)N3C)O2)cc1` was run?
Answer: inactive: 1.01

Question: With `C[C@H](CO)N1C[C@H](C)[C@@H](CN(C)Cc2ccc3c(c2)OCO3)Oc2ccc(NC(=O)c3ccncc3)cc2C1=O` as the molecule, how does the relative growth read?
Answer: inactive: 0.956

Question: Which relative growth does the source give for `C[C@@H]1CN([C@H](C)CO)C(=O)Cc2cc(NC(=O)C3CCCCC3)ccc2O[C@@H]1CN(C)S(=O)(=O)c1cn(C)cn1` here?
Answer: inactive: 0.995

Question: With `COc1ccnc(CS(=O)c2nc3cc(OC(F)F)ccc3[nH]2)c1OC` (centres undefined) as the molecule, how does the relative growth read?
Answer: inactive: 1.04

Question: `C[C@H]1CN([C@@H](C)CO)C(=O)c2cccc(NS(C)(=O)=O)c2O[C@H]1CN(C)S(=O)(=O)c1ccc(F)cc1` was tested. Which relative growth did it give?
Answer: inactive: 1.01

Question: How did the relative growth turn out when `C[C@H](CO)N1C[C@H](C)[C@@H](CN(C)Cc2ccc(Cl)c(Cl)c2)Oc2c(NC(=O)c3ccc(-c4nccs4)cc3)cccc2C1=O` was run?
Answer: inactive: 1.02

Question: How did the relative growth turn out when `COc1ccc(NC(=O)N(C)C[C@H]2OCCCC[C@H](C)Oc3ccc(NS(=O)(=O)c4ccc(Cl)cc4)cc3C(=O)N([C@H](C)CO)C[C@@H]2C)cc1` was run?
Answer: inactive: 1.01

Question: For `COc1ccc(S(=O)(=O)N(C)C[C@H]2Oc3ccc(NS(=O)(=O)c4ccccc4)cc3C(=O)N([C@@H](C)CO)C[C@@H]2C)cc1`, which relative growth is on record?
Answer: inactive: 1.01

Question: `C[C@@H]1CN([C@H](C)CO)C(=O)c2cc(NC(=O)Cc3ccccc3)ccc2O[C@H]1CN(C)Cc1ccc(C(F)(F)F)cc1` was tested. Which relative growth did it give?
Answer: inactive: 1.04

Question: `N=C(N)NCCSC(=N)N` was tested. Which relative growth did it give?
Answer: inactive: 0.998

Question: With `Cc1ccc(S(=O)(=O)N2C[C@@H](O)COC[C@H]3O[C@H](CC(=O)NCc4ccc(F)c(F)c4)CC[C@@H]32)cc1` as the molecule, how does the relative growth read?
Answer: inactive: 0.99

Question: How did the relative growth turn out when `Cc1cc(C(=O)Nc2cccc3c2O[C@H](CN(C)C(=O)Nc2c(C)noc2C)[C@H](C)CN([C@H](C)CO)C3=O)n(C)n1` was run?
Answer: inactive: 0.941

Question: How did the relative growth turn out when `CN(C)CC(=O)N[C@H]1CC[C@@H](CC(=O)O)O[C@H]1CO` was run?
Answer: inactive: 1.01
